# Laboratory results from publication PMC13083723 (Patterns, 2026).
# Out of some 5,400 compounds screened, about 190 (3.5%) showed an effect of 50% or more. Some of the results follow. Non-standard residues stand in square brackets, D forms with d. Residues, ends and D or L forms follow the SMILES beside them.
# Tested on: Vero-E6
# Assay: primary screen, phospholipidosis by LipidTOX staining; higher = more effect of the substance
# Settings: 10 µM
# In short: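 Drug-induced phospholipidosis detected with HCS LipidTOX Red reagent in Vero-E6 cells. Compounds tested at 10 μM, with amiodarone (10 μM) as positive control and DMSO (0.1 v/v %) as vehicle.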
row,SMILES,result_ITMP [%]
1,N=C(N)Nc1ccc2[nH]c3c(c2c1)C[C@@]1(O)C2Cc4ccc(O)c5c4[C@@]1(CCN2CC1CC1)[C@H]3O5,-0.46
2,N#C/C(=C\c1ccc(O)c(O)c1)C(=O)Nc1ccccc1,3.7
3,COc1cc(-n2cnc3cc(-c4ccc(Cl)cc4)sc3c2=O)ccc1OCCN1CCCC1,28
4,O=CN1CCC(C(=O)NCCN2CCC(=C3c4ccccc4C=Cc4ccccc43)CC2)CC1,46.9
5,CN1C(=O)COc2c(C(=O)NC3CN4CCC3CC4)cc(Cl)cc21 (centres unmarked),-4.31
6,O=c1ccc2c(OCCCCOc3ccccc3)c3ccoc3cc2o1,-1.22
7,CC(=O)OCC(=O)NCCCOc1cccc(CN2CCCCC2)c1,-8.47
8,CCCCCCCCC(=O)N[C@H](CN1CCCC1)[C@H](O)c1ccc2c(c1)OCCO2,63.4
9,CCn1cc(C(=O)O)c(=O)c2cc(F)c(N3CCNCC3)nc21,-7.56
10,C[C@H](NCc1ccc(OCc2cccc(F)c2)cc1)C(N)=O,16
11,O=C(Oc1ccc([N+](=O)[O-])cc1)N1CCC(C(O)(c2ccc3c(c2)OCO3)c2ccc3c(c2)OCO3)CC1,-11.8
12,CCCCN1[C@@H]2CC[C@H]1C[C@@H](OC(c1ccc(F)cc1)c1ccc(F)cc1)C2,51.4
13,Cc1ccc(C(=O)Nc2ccc(CN3CCN(C)CC3)c(C(F)(F)F)c2)cc1C#Cc1cnc2[nH]ncc2c1,6.57
14,O=C(Nc1ccc(S(=O)(=O)Nc2ccccc2Cl)c(Cl)c1)c1ccccn1,0.99
15,C[C@@H]([C@@H](O)c1ccc(O)cc1)N1CCC(O)(c2ccccc2)CC1,-7
16,C[C@@H]1CCO[C@H]2Cn3cc(C(=O)NCc4ccc(F)cc4F)c(=O)c(O)c3C(=O)N12,-4.23
17,Oc1ccc(-c2nc(-c3ccc(F)cc3)c(-c3ccncc3)[nH]2)cc1,-1.56
18,N#CCc1ccccc1C#Cc1ccc(CCC(=O)O)c(F)c1,-8.03
19,COc1ccc(C(=O)/C(Cc2cc(OC)c(OC)c(OC)c2)=C(\C(=O)[O-])c2ccc3c(c2)OCO3)cc1,-3.57
20,CCCCCCCC(=O)OCC(O)CO (centres unmarked),-6.16
21,Cc1cc(-c2ccc(/N=N/c3ccc4c(S(=O)(=O)[O-])cc(S(=O)(=O)[O-])c(N)c4c3O)c(C)c2)ccc1/N=N/c1ccc2c(S(=O)(=O)[O-])cc(S(=O)(=O)[O-])c(N)c2c1O,10.1
22,Cc1ccc(-c2ncc[nH]2)cc1NC(=O)c1ccc(OCc2ccccn2)cc1,4.64
23,O=C(NC[C@H](O)CO)c1ccncc1Nc1ccc(I)cc1F,1.33
24,O=C(O)c1ccc2cc(-c3ccc(O)c(C45CC6CC(CC(C6)C4)C5)c3)ccc2c1,-9.79
25,COc1ccc2c(c1)[C@]13CCCC[C@@H]1[C@H](C2)N(C)CC3,7.4
26,Cc1ccc(-n2nc(C(C)(C)C)cc2NC(=O)NCc2cc(F)ccc2Oc2ccc3c(cnn3CCO)c2)cc1,6.1

row,SMILES,result_ITMP [%]
1,CN(C)C(=O)n1nnnc1Cc1ccc(-c2ccccc2)cc1,9.23
2,CCOc1cc(C(=O)Nc2ccc(Cl)c(-c3nc4ccccc4[nH]3)c2)cc(OCC)c1OCC,1.65
3,Cc1cc(N2CCOCC2)cc2nc(-c3c(NC[C@@H](O)c4cccc(Cl)c4)cc[nH]c3=O)[nH]c12,-0.86
4,CC1NC(=O)C(N)CNC(=O)C(C2CCNC(=N)N2)NC(=O)/C(=C\NC(N)=O)NC(=O)C(CNC(=O)CC(N)CCCN)NC1=O (centres unmarked),6.88
5,CC[C@H](C)[C@H](NC(=O)[C@H](Cc1ccc(O)cc1)NC(=O)[C@@H](NC(=O)[C@H](CCCNC(=N)N)NC(=O)[C@@H](N)CC(=O)O)C(C)C)C(=O)N[C@@H](Cc1c[nH]cn1)C(=O)N1CCC[C@H]1C(=O)O,-0.26
6,O=c1n(CCCN2CCN(c3cccc(Cl)c3)CC2)nc2ccccn12,-2.31
7,CC(=O)NCCCCCC(=O)O,-2.37
8,O=C(O)c1cc(=O)[nH]c(=O)[nH]1,-6.85
9,Cc1ccccc1C(C(=O)NC1CCCCC1)N(C(=O)Cn1ccnc1C)c1cccc(F)c1 (centres unmarked),-6.57
10,COc1ccc2cc([C@H](C)C(=O)O)ccc2c1,-1.35
11,N#Cc1cc(CN2CCC(Nc3ncnc4sc(Cl)cc34)CC2)ccc1F,18.7
12,O=C(O)/C=C1\CCCc2ccccc2C1O (centres unmarked),-0.78
13,COc1cc(/C=C2\CCCN([C@@H](C)c3ccc(F)cc3)C2=O)ccc1-n1cnc(C)c1,3.14
14,C[C@]12CCC(=O)C=C1[C@@H]1C[C@@H]1[C@H]1[C@@H]3[C@@H]4C[C@@H]4[C@@]4(CCC(=O)O4)[C@@]3(C)CC[C@@H]12,7.83
15,C[N+](C)(C)CC(O)CC(=O)O (centres unmarked),-4.35
16,N=C(N)c1ccc(/N=N/Nc2ccc(C(=N)N)cc2)cc1,17.5
17,C=CCN1CC[C@]23c4c5ccc(O)c4O[C@H]2[C@@H](OCCOCCOCCOCCOCCOCCOCCOC)CC[C@@]3(O)[C@H]1C5,-0.14
18,CS(=O)(=O)Nc1c(O)ccc2c1CCCC2C1=NCCN1 (centres unmarked),-5.3
19,CCCCn1c(=O)c2[nH]c(C34CC5CC(CC3C5)C4)nc2n(CCCO)c1=O,0.45
20,CC(C)C[C@H](NC(=O)N1CCCCCC1)C(=O)N[C@H](Cc1cn(C)c2ccccc12)C(=O)N[C@H](Cc1ccccn1)C(=O)O,-2.08
21,O=C(O)c1ccc2nc(-c3cc(Cl)cc(Cl)c3)oc2c1,0.19
22,OCCn1cc(-c2cnc3nnn(Cc4ccc5ncccc5c4)c3n2)cn1,0.98
23,CC1=C(/C=C/C(C)=C/C=C/C(C)=C/CO)C(C)(C)CCC1,-1.23
24,C[C@H](NC(=O)[C@@H](Cc1c[nH]c2ccccc12)NC(=O)[C@@H](N)Cc1cnc[nH]1)C(=O)N[C@@H](Cc1c[nH]c2ccccc12)C(=O)N[C@H](Cc1ccccc1)C(=O)N[C@@H](CCCCN)C(N)=O (H-H[dW]AW[dF]K-NH2),-2.53
25,Cc1ncc([N+](=O)[O-])n1CC(C)O (centres unmarked),-1.93
26,CCNCc1cc(C(C)(C)C)c(O)c(C(C)(C)C)c1,9.53

row,SMILES,result_ITMP [%]
1,Cc1c(NC(=O)c2cc3c(s2)CCCC3)cccc1-c1cn(C)c(=O)c(Nc2ccc(C3C(=O)N(C)CCN3C)cc2)n1 (racemic),-0.03
2,Cc1[nH]c(=O)c(C#N)cc1-c1ccc2nccn2c1,-2.55
3,CN(C(=O)Cc1ccc(Cl)c(Cl)c1)[C@H](CN1CCCC1)c1ccccc1,53.5
4,COC[C@H]1OC(=O)c2coc3c2[C@@]1(C)C1=C(C3=O)[C@@H]2CCC(=O)[C@@]2(C)C[C@H]1OC(C)=O,-2.98
5,NC(=O)c1cccc(-c2cccc(OC(=O)NC3CCCCC3)c2)c1,-5.98
6,CC(=O)O[C@H]1C(=O)[C@@]2(C)[C@H]([C@H](OC(=O)c3ccccc3)[C@]3(O)C[C@H](OC(=O)[C@H](O)[C@@H](NC(=O)c4ccccc4)c4ccccc4)C(C)=C1C3(C)C)[C@]1(OC(C)=O)CO[C@@H]1C[C@@H]2O,-1
7,O=c1nc[nH]c2c1cnn2[C@@H]1O[C@H](CO)[C@@H](O)[C@H]1O,2.43
8,COc1c(-c2ccc3cc(NS(C)(=O)=O)ccc3c2)cc(-n2ccc(=O)[nH]c2=O)cc1C(C)(C)C,1.09
9,COC(=O)/C=C/C(=O)OCCN1C(=O)CCC1=O,-4.7
10,Cn1ncc2c(N3CCOCC3)nc(-c3cccc(O)c3)nc21,-4.96
11,C[C@@H](O)[C@H](N)C(=O)N1CCC[C@H]1C(=O)N1CCC[C@H]1C(=O)N[C@H](C(N)=O)[C@@H](C)O (H-TPPT-NH2),-1.7
12,COc1cccc2c1C(=O)c1c(O)c3c(c(O)c1C2=O)C[C@@](O)(C(=O)CO)C[C@@H]3O[C@H]1C[C@H](N)[C@@H](O)[C@H](C)O1,4.45
13,CN[C@@H]1Cc2cccc3nc(O)n(c23)C1,5.61
14,CCCN(CCC)CCc1cccc2c1CC(=O)N2,5.76
15,O[C@H]1[C@H](O)[C@@H](O)[C@H](O)[C@@H](O)[C@H]1O,-4.17
16,CCN1CCN(C(=O)NC(C(=O)NC2C(=O)N3C(C(=O)O)=C(CSc4nnnn4C)CSC23)c2ccc(O)cc2)C(=O)C1=O (centres unmarked),-3.65
17,C=C(C)[C@@H]1CC[C@]2(CO)CC[C@]3(C)[C@H](CC[C@@H]4[C@@]5(C)CC[C@H](O)C(C)(C)[C@@H]5CC[C@]43C)[C@@H]12,-4.87
18,COC(=O)C[C@](O)(CCCC(C)(C)O)C(=O)O[C@@H]1C(OC)=C[C@]23CCCN2CCc2cc4c(cc2[C@H]13)OCO4,-2.84
19,C[C@@H]1[C@H](O)[C@@H](C)/C=C/C=C/C=C/C=C/C=C/C=C/C=C/[C@H](O[C@@H]2O[C@H](C)[C@@H](O)[C@H](N)[C@@H]2O)C[C@@H]2O[C@](O)(C[C@@H](O)C[C@@H](O)[C@H](O)CC[C@@H](O)C[C@@H](O)CC(=O)O[C@H]1C)C[C@H](O)[C@H]2C(=O)O,0.23
20,O=C(/C=C/c1c(C(=O)[O-])[nH]c2cc(Cl)cc(Cl)c12)Nc1ccccc1,0.43
21,CNCCc1ccc(O)c(O)c1,0.38
22,O=C(CCNNC(=O)c1ccncc1)NCc1ccccc1,3.95
23,Fc1ccccc1CNCc1ccc(-c2ccnc3[nH]ccc23)cc1,10.7
24,Cc1cnc(-c2ccccc2C(C)C)nc1NCc1ccc(-n2ccnn2)cc1,-1.95
25,Cc1ccc(=O)n(-c2ccc(O)cc2)c1,-2.59
